Test results taken from PubChem BioAssay AID2546 (National Center for Advancing Translational Sciences (NCATS), 2010).
Values joined by “and” are separate entries in the source; they are usually repeats but may differ in a detail not shown here. Equal values may be shown once. The campaign covered roughly 310,000 compounds. About 11,000 (3.5%) were called active. The inconclusive results got no clear call from the source; some entries with a clear call stand among them for comparison. The call rests on the fitted dose curve; in most records, active means well fitted inhibition curve with a large enough effect; inconclusive means small, poorly fitted or top-dose-only effect, or effect the other way; inactive means flat fitted curve, though single readings scatter. Potencies of inconclusive entries are left out as doubtful fits.

Experiment: VP16 counterscreen qHTS for inhibitors of ROR gamma transcriptional activity;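 further: Gal4-VP16 expression switched on by copper sulfate through the metallothionein promoter; nearly all actives have a fitted effect of over 50% in size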
Conditions: Drosophila S2 Gal4-VP16 UAS-luciferase, luminescence, 20 h; activity, negative = inhibition: at 53.6 µM (top of the series)
On the % scale 0 is the no-effect control and ±100 the full control effect; potency means the concentration at half of the fitted maximal effect; tags describe the fitted curve by direction and shape.

| SMILES | Potency | activity, negative = inhibition |
| --- | --- | --- |
| O=C(CN(Cc1ccco1)C(=O)c1ccc(Cl)cc1)Nc1c(Cl)cc(Cl)cc1Cl | inconclusive [inhibitor, partial curve] | – |
| COc1cc(/C=C/c2cc(C(=O)O)c3ccccc3n2)ccc1OC(F)F | inconclusive [inhibitor, single point] | – |
| CCOC(=O)c1ccccc1NC(=S)N1CC(C)CC(C)C1 (configuration not stated) | inconclusive [inhibitor, single point] | – |
| Oc1ccc(C=Nc2ccccc2-c2nc3ccccc3[nH]2)c(O)c1 | inconclusive [activator, full curve, poor fit] | – |
| O=C(COc1ccc(Br)cc1Cl)NC(=O)NCc1ccccc1 | inactive | – |
| CC1(C)C(=O)NC2=C1C(=O)C(=O)c1ccccc12 | active: 891 nM and active: 2.82 µM | – |
| COc1ccccc1NC(=O)c1cc(-c2cc(OC)c(OC)c(OC)c2)nc2ccccc12 | inconclusive [inhibitor, partial curve, poor fit] | – |
| Cn1nc([N+](=O)[O-])nc1S(C)(=O)=O | inconclusive [inhibitor, single point] | – |
| Cc1nonc1NC(=O)CSc1nc(C2CCCCC2)nc2ccccc12 | inconclusive [inhibitor, single point] | – |
| COc1cc(OC)cc(C(=O)Nc2nnc(-c3cccnc3)o2)c1 | active: 4.47 µM | – |
| Cc1ccccc1NC(=O)c1cc2ccccn2n1 | inconclusive [inhibitor, single point] | – |
| O=S(=O)(N/N=C\c1ccc(-c2ccccc2Cl)o1)c1ccccc1 | inconclusive [inhibitor, single point] | – |
| Cc1cc(C)cc(Nc2ncc3c(n2)CCCC3=O)c1 | active: 11.2 µM | – |
| COc1ccc(N(C(=O)CCC(=O)Nc2cc(C)on2)C(C(=O)NC2CCCC2)c2ccco2)cc1 (configuration not stated) | inconclusive [activator, single point] | – |
| CC(C)c1cc(NC(=O)CCl)on1 | inconclusive [inhibitor, single point] | – |
| Cc1cc(C=O)c(C)n1-c1ccc(NC2CCCCC2)c([N+](=O)[O-])c1 | inconclusive [inhibitor, single point] | – |
| O=[N+]([O-])c1ccc(N/N=C/c2ccc(OCc3cccc4ccccc34)cc2)nc1 | inactive | – |
| Cc1ccc(C(=O)N/N=C(\CC(C)C)c2ccccc2)cc1 | inconclusive [inhibitor, single point] | – |
| COc1cc(OC)c(NC(=O)CCc2nc(-c3cccs3)no2)cc1Cl | inactive | – |
| COC(=O)c1ccc(Nc2nc(C)cc(C)n2)cc1 | inconclusive [inhibitor, single point] | – |
| N=C1C=CC(=C(c2ccc(N)cc2)c2ccc(N)cc2)C=C1 | inconclusive [inhibitor, single point] | – |
| Cn1c(NCc2ccco2)nc2c1c(=O)n(Cc1ccc(Cl)cc1)c(=O)n2C | inconclusive [inhibitor, single point] | – |
| COc1ccc(C2c3ccc(O)cc3Oc3ncn(CCN4CCOCC4)c(=N)c32)cc1OC (configuration not stated) | inactive | – |
| S=C1NC2(CCCC2)Nc2ccccc21 | inconclusive [inhibitor, single point] | – |
| COc1cc(/C=N/N2CCN(C3c4ccccc4-c4ccccc43)CC2)cc(OC)c1O | inconclusive [inhibitor, single point] | – |
| COc1ccccc1NC(=S)N/N=C/c1cccc(C)c1 | active: 1.26 µM | – |

| SMILES | Potency | activity, negative = inhibition |
| --- | --- | --- |
| CCc1nnc(NC(=O)c2ccc(S(=O)(=O)N(CCOC)CCOC)cc2)o1 | active: 6.31 µM | – |
| Cc1ccc(NC(=O)c2ccc(COc3ccccc3)o2)nc1 | inactive | – |
| C=C(C)COc1ccc(-c2n[nH]c(C)c2-c2ccccc2OC)c(O)c1 | active: 14.1 µM | – |
| COc1ccccc1NC(=O)Cc1nnc(SCC(=O)c2ccccc2)n1C | inactive | – |
| CCCC1C2C(=O)N(c3ccccc3)C(=O)C2ON1c1ccccc1 (configuration not stated) | inactive | – |
| CCN1CCN(C(=O)NCc2ccccc2)CC1 | inactive | – |
| CCOC(CNC(=O)Cn1nc(C)c2ccccc21)OCC | inactive | – |
| C/C(=N/NC(=O)c1cc2ccccc2cc1O)C1C(=O)c2ccccc2C1=O | active: 17.8 µM | – |
| COCCNC(=O)CSc1nc2ccc(N3CCOCC3)cc2c(=O)n1CCc1ccccc1 | inconclusive [inhibitor, single point] | – |
| COC(=O)c1ccc(C(NC(=O)OCc2ccccc2)/C(C)=C/[C@@H](C)C(=O)Nc2ccc(OC)cc2)cc1 (some centres not stated) | inactive | – |
| O=C(Nc1ccc(S(=O)(=O)N2CCCC2)cc1)c1ccc2c(=O)n3c(nc2c1)CCCCC3 | inactive | – |
| O=c1c(Cl)c(NCCCO)cnn1-c1nc2ccccc2[nH]1 | active: 3.55 µM | – |
| CCOC(=O)/C(C#N)=N\Nc1ccc(S(=O)(=O)Nc2nc(C)cc(C)n2)cc1 | inconclusive [inhibitor, partial curve] | – |
| O=C(N/N=C/c1cccs1)C(=O)Nc1cccc(Cl)c1 | active: 10 µM | – |
| O=C(NC(=S)N(CCO)Cc1ccccc1)c1ccc(F)cc1Cl | active: 2.82 µM | – |
| COc1ccc(-n2c(=O)c3c4c(sc3n(CC(=O)Nc3cc(C)[nH]n3)c2=O)CCC4)c(OC)c1 | inactive | – |
| Cn1c(SCC(=O)O)nc2ccccc2c1=O | inactive | – |
| CC(=O)Oc1cc2c(cc1Cl)C(c1cccs1)CC1(CC(C)(C)NC(=S)N1)O2 (configuration not stated) | inconclusive [inhibitor, single point] | – |
| C=CCN(c1ccc(F)cc1)S(=O)(=O)c1cc(C(=O)OCC(=O)N(C)C2CCS(=O)(=O)C2)ccc1Cl (configuration not stated) | inactive | – |
| O=C(CN1C(=O)/C(=C\c2ccccc2Cl)Sc2ccccc21)NCCCN1CCOCC1 | inactive | – |
| O=S(=O)(NC1CCCCCC1)c1cccc2cccnc12 | inactive | – |
| COc1cc2c(c(OC)c1OC)-c1c(cc(OC)c(OC)c1OC)CC(C)C(C)C2 (configuration not stated) | inconclusive [inhibitor, single point] | – |
| Cc1cc(C)c(O)c(NC(=S)NC(=O)Cc2ccccc2)c1 | active: 5.62 µM | – |
| CC1=NN(C(=O)c2csc(C)c2C)C(O)(C(F)(F)F)C1 (configuration not stated) | active: 4.47 µM | – |
| Cc1ccc(S(=O)(=O)N(C)C)cc1NC(=S)N(CCC#N)Cc1cccnc1 | inconclusive [inhibitor, single point] | – |
| CCOc1nc2cnccc2n(CC(=O)Nc2ccccc2F)c1=O | inactive | – |

| SMILES | Potency | activity, negative = inhibition |
| --- | --- | --- |
| Cc1c(CCC(=O)N[C@@H](C)C(=O)O)c(=O)oc2cc3oc4c(c3cc12)CCCC4 | inconclusive [inhibitor, partial curve] | – |
| COc1ccc(OC)c(NC(=O)c2cc(-c3cc(C)ccc3O)n[nH]2)c1 | inconclusive [inhibitor, single point] | – |
| CCCOc1ccc(-c2nc(OCC)c3ccccc3n2)cc1 | inconclusive [inhibitor, full curve, poor fit] | – |
| CCNC(=S)N/N=C/c1cc(C)ccc1C | active: 2.51 µM | – |
| CC(C)(C)N=C1NN=C(c2ccc(Cl)cc2)CS1 | inconclusive [inhibitor, single point] | – |
| Cc1cc(C)n(C(=O)CNC(=O)c2ccccc2F)n1 | inconclusive [inhibitor, single point] | – |
| CCc1ccc(/C=N/NC(=O)c2ccc(OC3CCCC3)cc2)s1 | active: 11.2 µM | – |
| Cn1cccc1C(=O)N1CCC2(CC1)CCN(c1ccccn1)CC2 | inactive | – |
| CCC1CCCCN1CCCNC(=O)c1ccc2c(c1)NC(=O)CS2 (configuration not stated) | inactive | – |
| O=S(=O)(NC1CCCC1)c1ccccc1Cl | inconclusive [inhibitor, single point] | – |
| COc1ccc(NC(=O)CSc2nnc(-c3ccccn3)n2N)cc1 | inconclusive [inhibitor, single point] | – |
| O=S(=O)(O)c1cc(OS(=O)(=O)c2ccccc2)cc2ccccc12 | inactive | – |
| O=C1/C(=C/c2ccc(Br)cc2)Oc2cc(O)ccc21 | inconclusive [inhibitor, single point] | – |
| OCCN=C1CCCc2c1[nH]c1ccc(Br)cc21 | inconclusive [inhibitor, partial curve, poor fit] | – |
| CCCCNC(=S)NC1CCCC1 | active: 17.8 µM | – |
| COc1ccc(C/C(C)=N/NC(=S)Nc2ccc(C)c(C)c2)cc1 | active: 10 µM | – |
| C/C(=N\NC(=O)CSc1nc2ccccc2s1)c1ccco1 | inactive | – |
| CCC(=O)N/N=C(\C)CC(=O)Nc1ccc2c(c1)OCCO2 | inconclusive [inhibitor, single point] | – |
| Cc1ccc(S(=O)(=O)CC(O)COc2ccc(F)cc2Cl)cc1 (configuration not stated) | – | inactive: -9.91% [at 10 µM] |
| CCO[C@@H]1OC(C(=O)N2CCN(Cc3ccc4c(c3)OCO4)CC2)=C[C@H](c2csc3ccccc23)[C@H]1CCCO | inconclusive [inhibitor, single point] | – |
| CC(C)(C)C(=O)NC(NC(=S)Nc1sc2c(c1C#N)CCCC2)C(Cl)(Cl)Cl (configuration not stated) | inconclusive [inhibitor, single point] | – |
| COc1ccc(C(=O)NCCc2nc3cc([N+](=O)[O-])ccc3n2C)cc1 | inactive | – |
| COc1cccc(C(=O)Nc2cccc3c2ccc2cccn23)c1 | inactive | – |
| COc1ccc(NS(=O)(=O)c2ccc(Oc3ncccn3)cc2)cc1 | inconclusive [inhibitor, single point] | – |
| CCCN(CCc1cccs1)[C@H]1CCc2c(O)cccc2C1 | inactive | – |
